# Data from PubChem BioAssay AID1347073 (National Center for Advancing Translational Sciences (NCATS), 2019).
# The whole screen tested about 45,000 compounds, of which about 200 (0.44%) were called active. Roughly 7% stayed inconclusive and do not appear here. Calls come from the whole dose curve; as a rule, active = well fitted activation curve with a large enough effect; inconclusive = small, poorly fitted or top-dose-only effect; inactive = no such curve, though single readings can be large or run the other way. The list shows a part of the results.
# Assay: qHTS of TDP-43 Inhibitors: NCGC Sytravon Library Screen; note: nearly all actives have a fitted effect of over 55% in size; for growth rescue (activation): 0% is about no effect
# Settings: yeast TDP-43 toxicity rescue, BacTiter-Glo growth, 24 h; series mostly up to 46.1 µM; growth rescue (activation): at the top concentration
# Summary of the method: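 TDP-43-expressing yeast, pregrown in raffinose, seeded at OD600 0.02 in galactose medium with compound for 24 hr at 30 deg C. Growth read by BacTiter-Glo luminescence, so rescue of toxicity appears as activation.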
# Potency is the fitted concentration of half-maximal effect.
Structure (SMILES),growth rescue (activation),Potency
CCOc1ccccc1NC(=O)CN1CCC(NC(=O)Nc2ccccc2)CC1,inactive: -0.377%,–
C=C1CSc2nc(=O)c3c(C)c(C)sc3n21,inactive: 4.48%,–
CCOC(=O)c1oc2c(CN3CCN(CCO)CC3)c(O)c(CC)cc2c(=O)c1-c1nc2ccccc2s1,inactive: -2.19%,–
Nc1ccc(C(=O)O)cc1S(=O)(=O)O,inactive: 8.82%,–
CN1C(=O)/C(=C2\SC(N)=NC2=O)c2ccccc21,inactive: 13.3%,–
Cc1ccc(S(=O)(=O)NNC(=O)C2COc3ccccc3O2)cc1 (configuration not stated),inactive: 8.88%,–
NC(c1csc(NC(=O)Nc2cccc(Cl)c2)n1)c1ccccc1Cl (configuration not stated),inactive: 4.71%,–
CC(C)(C)C1CCC(=NNC(=S)Nc2cccnc2)CC1 (configuration not stated),inactive: -6.16%,–
CN(c1ccccc1C(=O)Nc1ccc(S(=O)(=O)N2CCOCC2)cc1)S(C)(=O)=O,inactive: -31.4%,–
O=C(/C=C/c1cccc([N+](=O)[O-])c1)NCCSCc1cccc(Cl)c1,–,active: 12.6 µM
CN(CC(=O)NCC1CCCCC1)S(=O)(=O)c1ccc(Cl)cc1,inactive: -3.43%,–
CCC(=O)N1CCc2cc(S(=O)(=O)Nc3ccccc3C)ccc21,inactive: 1.27%,–
Cc1ccc(S(=O)(=O)N2CCOCC2)cc1NC(=O)CSc1nccn1C,inactive: 6.99%,–
COc1ccc(NS(=O)(=O)c2c(C)cc(C)cc2C)cn1,inactive: 18.4%,–
Cc1ccc(-c2csc(NC(=S)NC(=O)c3cc4ccccc4o3)n2)cc1,inactive: -1.1%,–
Cc1nc(C)c(C(=O)OCC(=O)Nc2ccccc2SCC#N)s1,inactive: 28.7%,–
CC(C)(C)NC(=O)CN1CCC(NC(=O)C23CC4CC(CC(C4)C2)C3)CC1,inactive: 1.4%,–
O=C(O)Cc1ccc(NC(=O)c2ccc3c(c2)C(=O)N(CC2CCCO2)C3=O)cc1 (configuration not stated),inactive: 11.5%,–
CCCCCOc1ccccc1C(=O)NCCCCCC(=O)O,inactive: 15.7%,–
CCCCOc1ccc(C(=S)N2CCC(C(N)=O)CC2)cc1,inactive: 6.51%,–
COc1ccccc1N1CCN(Cc2nc3ccccc3[nH]2)CC1,inactive: 3.76%,–
CC(C)N1CCCC(C)(C(=O)Nc2ccccc2)C1 (configuration not stated),inactive: 9.51%,–

Structure (SMILES),growth rescue (activation),Potency
O=C(OCc1cncs1)c1ccccc1Cl,inactive: 23.5%,–
O=C(Nc1ccccc1)c1cc([N+](=O)[O-])ccc1N1CCCCC1,inactive: 9.44%,–
CCc1nc2ccc(C(=O)Nc3cc(-c4ccccc4)ccc3OC)cn2c1N(C=O)CCC(C)C,inactive: 14.1%,–
Cc1ccc(SCC(=O)c2cc(C)c(OC(=S)N(C)C)c(C)c2)cc1,inactive: 1.6%,–
CC1(C(=O)Nc2ccc3nc[nH]c3c2)CCN1C(=O)c1ccccc1CCc1ccccc1 (configuration not stated),inactive: 0.58%,–
O=C(C(=O)N1CCOCC1)c1cn(CCOc2ccccc2)c2ccccc12,inactive: 3.24%,–
CCN(CC)CCNc1nc(SC)nc2sc3c(c12)CCN(C)C3,inactive: 3.23%,–
CCCn1c(SCC(=O)NCCc2ccccc2)nnc1C(C)C,inactive: 19.6%,–
CCCC(=O)Nc1nnc(/C=C/c2ccc(OC)cc2)s1,inactive: 4.13%,–
CCOc1ccc2c(c1)c(N=O)c(O)n2C,inactive: 4.41%,–
COCCn1c(Cc2ccccc2)nnc1SCC(=O)NC1CC1,inactive: -3.54%,–
O=[N+]([O-])c1cccc(CSc2nnc(Cc3ccccc3)n2-c2ccc(F)cc2)c1,inactive: 19%,–
S=c1nc2ccccc2c2nc(-c3ccccc3)[nH]n12,inactive: 5.52%,–
COc1cc(-c2cc(NC(C)=O)c3ncc(-c4cc(OC)c(OC)c(OC)c4)n3c2)cc(OC)c1OC,inactive: 3.55%,–
COc1ccc(-c2nc3c(c(=O)[nH]c(=O)n3Cc3ccccc3)n2C)cc1,inactive: 1.18%,–
CCc1ccc(C(=O)COC(=O)CNC(=O)c2ccc(Br)o2)cc1,inactive: 2.15%,–
COc1ccc(C(CCN)Cc2ccccc2)cc1 (configuration not stated),inactive: 9.69%,–
COc1cc(OC)cc(C(=O)NNC(=S)NCc2ccco2)c1,inactive: 13.7%,–
Cc1ccc(S(=O)(=O)N(C)c2ccc(OCC(=O)Nc3nc(-c4ccccc4)cs3)cc2)cc1,inactive: -1.89%,–
COc1ccc(CCNC(=O)CCc2cn(C)c3ccccc23)c(OC)c1,inactive: 11.4%,–
Cc1c(Cl)c(C(F)(F)F)nn1CC(=O)NN,inactive: 13.5%,–
CN1CCc2c(C#N)c(N3CCCCC3)nc(N3CCOCC3)c2C1,inactive: 3.78%,–

Structure (SMILES),growth rescue (activation),Potency
C=CCN(c1ccc(C(=O)Nc2ccc(C)c(C)c2)cc1)S(C)(=O)=O,inactive: 2.16%,–
COc1ccccc1NC(=O)c1ccc(S(=O)(=O)NCc2ccco2)cc1,inactive: 15.1%,–
CC(=O)Nc1ccc(SCCC2CCCCN2C)cc1 (configuration not stated),inactive: 6.51%,–
CC1(C(=O)NS(=O)(=O)C2CC2)CCN(C(=O)c2ccc(F)c(Cl)c2)C1 (configuration not stated),inactive: -7.1%,–
CCOC(=O)c1c(-c2ccc(C)o2)csc1NC(=S)NC(=O)c1cccs1,inactive: 21.8%,–
Cc1cc(C)c2cc(C#N)c(N3CCCN(C(=O)c4cnccn4)CC3)nc2c1,inactive: 28.9%,–
CCC(=O)Nc1ccc2c(c1)nc(CCN1CCN(c3ccccn3)CC1)n2C,inactive: -10.8%,–
CC1(C)CN(O)CCN1O,inactive: -3.91%,–
N#CC1=C(N)Oc2cc(N)ccc2C1c1ccc(F)cc1F (configuration not stated),inactive: 10.7%,–
CCNC(=O)C1CCCN(Cc2ccc(C(=O)OCC)cc2)CC1 (configuration not stated),inactive: 2.34%,–
CC(C)Cn1c(N)c(C(=O)COC(=O)/C=C/c2cccs2)c(=O)n(C)c1=O,inactive: -7.98%,–
CN1CCN(c2ncnc3c2ncn3[C@H]2CN(Cc3ccc(F)cc3)C[C@@H](CO)O2)CC1,inactive: 3.51%,–
CS(=O)(=O)c1nc(-c2ccc(F)cc2)cc(C(F)(F)F)n1,inactive: -6.68%,–
CCN(C(=O)Cn1c(=O)oc2ccccc21)c1cccc(C)c1,inactive: -4.09%,–
CCc1cc(C(=O)NNC(=O)CCl)sc1C,inactive: 18.8%,–
Cc1cc(C)c2[nH]c(=O)c(CN(Cc3ccco3)C(=O)C3CCCO3)cc2c1 (configuration not stated),inactive: 8.4%,–
COc1ccc(C(=O)NC2CCCCC2)cc1S(=O)(=O)N1CCOCC1,inactive: -1.55%,–
CCCC(=O)N(c1ccc2oc(C)c(C(C)=O)c2c1)S(=O)(=O)c1ccc(C)c([N+](=O)[O-])c1,inactive: -1.02%,–
CCOc1cc(/C=N/NC(=O)CN2CCCCC2)ccc1OCc1ccc(Cl)cc1,inactive: 28.6%,–
COCCOc1cc(NC(=O)CS(=O)(=O)CC(=O)N(C)C)c(Cl)cc1Cl,inactive: 2.77%,–
CCN(CC)S(=O)(=O)c1ccc(N2CCOCC2)c(NC(=O)c2ccc3ccccc3c2)c1,inactive: 2.64%,–
Cc1cc(C)n(C(=O)CSc2nnc(SCC(=O)n3nc(C)cc3C)s2)n1,inactive: 8.31%,–

Structure (SMILES),growth rescue (activation),Potency
CC(C)(C)c1cc[n+](-c2[nH]c(=O)sc2/C=N/NC([S-])=Nc2ccccc2)cc1,inactive: 6.45%,–
CS(=O)(=O)n1nc(NCc2cccs2)nc1NCc1cccs1,inactive: 15.2%,–
CC(C)N(CCNC(=O)c1ccc(OCC2CCCO2)cc1)C(C)C (configuration not stated),inactive: -1.49%,–
CCOC(=O)CCC(=O)OCC(=O)NC(C)C1CC2CCC1C2 (configuration not stated),inactive: 16.9%,–
COc1ccccc1-n1cnnc1SCC(=O)NCc1cccs1,inactive: -7.7%,–
Cc1ccc(S(=O)(=O)N2CCN(C(C)C)CC2)cc1,inactive: -13.4%,–
COc1ccc(C(C(=O)NC2CCCC2)N(C(=O)c2snc(C(N)=O)c2N)c2cc(C)ccc2OC)cc1OC (configuration not stated),inactive: 5.86%,–
CC1SC(c2ccc(F)cc2)N(CCc2ccccc2)C1=O (configuration not stated),inactive: 17.4%,–
COc1ccc(CCNC(=O)COc2ccc(-c3ccc(C#N)cc3)cc2)cc1,inactive: -16%,–
Cc1ccc(NC(=O)NCc2ccccn2)cc1,inactive: -2.52%,–
O=c1c2cc3c(nc2[nH]c(=S)n1-c1ccccc1)CCCC3,inactive: 2.34%,–
O=C(CCCN1C(=O)c2ccccc2C1=O)N1CCOCC1,inactive: 21.8%,–
O=C(O)c1ccccc1-n1c(-c2ccccc2)cc2c1CCCC2=O,inactive: 6.09%,–
COc1cc(/C=N/NC(=O)CCn2nnc3ccccc32)ccc1O,inactive: -2.08%,–
O=C(COC(=O)C1C2CC3OC(=O)C1C3C2)Nc1ccccc1 (configuration not stated),inactive: -14.7%,–
O=C(Nc1cc(=O)[nH]c2ncnn12)c1ccc(Cl)cc1Cl,inactive: -5.55%,–
N#C/C(=C/c1ccc(-c2ccccc2)o1)c1nc(-c2cccs2)cs1,inactive: 10.4%,–
CCCCn1c(=O)c(CCC(=O)OC(C)C(=O)Nc2cccc(Cl)c2Cl)nc2ccccc21 (configuration not stated),inactive: 8.88%,–
CC1Cc2ccccc2N1C(=O)CSc1nncn1C (configuration not stated),inactive: 0.929%,–
CCOc1ccc(NC(=O)COc2ccc(S(=O)(=O)N3CCOCC3)cc2)cc1,inactive: 2.6%,–
COc1cc2c(cc1NC(=O)C(C)Sc1cccc[n+]1[O-])oc1ccccc12 (configuration not stated),inactive: 21.7%,–
COC(=O)CN1C(c2cccc(Cl)c2)=Nc2ccc(Cl)cc2C1c1ccccc1 (configuration not stated),inactive: -2.64%,–

Structure (SMILES),growth rescue (activation),Potency
CC(=O)c1ccc(S(=O)(=O)N2CCN(C(=O)c3ccc(COc4ccccc4)o3)CC2)cc1,inactive: 21.4%,–
COc1ccc(NS(=O)(=O)c2cc(NC(=O)c3nn(C)c(=O)c4ccccc34)ccc2OC)cc1,inactive: 13.3%,–
Cc1cc(C)c2nc(-c3ccccn3)cc(C(=O)NCCc3ccc(S(N)(=O)=O)cc3)c2c1,inactive: 15.4%,–
O=C(Nc1ccc2c(c1)OCO2)C1CC(c2ccccc2O)=NO1 (configuration not stated),inactive: 5.16%,–
O=C(N/N=C/c1cccc(O)c1)C(=O)N1CCCCCC1,inactive: 1.56%,–
O=C(c1ccccc1)N1CCN(c2ccc([N+](=O)[O-])c(N3CCOCC3)c2)CC1,inactive: -0.654%,–
CN(c1ncc(C(F)(F)F)cc1Cl)N1C(=O)c2cccc(N)c2C1=O,inactive: 10.3%,–
Cc1cccc(N(C(=O)c2csnn2)C(C(=O)NC2CCCCC2)c2ccccn2)c1C (configuration not stated),inactive: -24.6%,–
CC(C)(C)c1ccc(-c2cn(-c3ccc(Br)cc3)c3[n+]2CCCS3)cc1,inactive: 9.75%,–
CCN(CC(=O)Nc1ccccc1SC)Cc1nc2ccccc2c(=O)[nH]1,inactive: -2.68%,–
CC1Cc2ccccc2N1CC(=O)c1c(N)n(Cc2ccccc2)c(=O)n(C)c1=O (configuration not stated),inactive: 2.42%,–
CCN(c1ccccc1)S(=O)(=O)c1ccc(Cl)c(NC(=O)COC(=O)C2CC2C)c1 (configuration not stated),inactive: 18.5%,–
COCCC1CCCCN1C(=O)c1cc(COc2ccc(C)nc2)on1 (configuration not stated),inactive: 4.07%,–
CC(=O)Nc1ccc(NC(=O)C(C)OC(=O)CNS(=O)(=O)c2cccc(Cl)c2)cc1 (configuration not stated),inactive: 4.71%,–
CCOc1ccc(N2CC(C(=O)N3CCCc4ccccc43)CC2=O)cc1 (configuration not stated),inactive: 18.7%,–
CC(C)(C)C(=O)/C=c1\[nH]c(=O)/c(=C\c2ccccc2F)s1,inactive: 9.63%,–
O=S(=O)(c1ccc2ccccc2c1)N1CCN(CCO)CC1,inactive: -6.62%,–
O=C(Nc1ccccc1-c1ccccc1)C1CCCC1,inactive: 22.9%,–
Cc1nn(-c2ccccc2)c(C)c1/C=C/C(=O)OCC(=O)Nc1ncc(Cl)cc1Cl,inactive: 7.71%,–
